Data reported in PubChem BioAssay AID1508623 (National Center for Advancing Translational Sciences (NCATS), 2021).
About 450 (0.94%) of roughly 48,000 compounds were called active. Another 19% or so got no clear call; they are omitted. Calls follow the shape of the dose curve; as a rule, active = well fitted inhibition curve with a large enough effect; inconclusive = small, poorly fitted or top-dose-only effect; inactive = no such curve, though single readings can be large or run the other way. This is one part of the list.

Experiment: Primary qHTS for Identification of Small Molecule Inhibitors of Huntingtin Promoter Activity; also: nearly all actives have a fitted effect of over 50% in size
Settings: HEK293 HTT promoter firefly luciferase reporter (activity 0% = vehicle and -100% = no light), 24 h; series mostly up to 57.5 µM; activity change, negative = inhibition: at the top concentration
How it was run: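 Firefly luciferase signal from promoter-reporter HEK293 cells was scaled between vehicle (0%) and zero RLU (-100%). Compounds were tested at final concentrations of up to 57.5 uM over 24 h at 37 degrees C. PTC124 at 50 uM final served as control inhibitor.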

Activity change, negative = inhibition, inactive:
O=C(NC1CC(=O)N(c2ccc(Cl)cc2)C1)C1CCCC1 (stereo not given) 0.399%
COc1ccc(NC(=O)CSc2nc3c(oc4ccccc43)c(=O)n2-c2ccccc2)cc1OC -16.6%
CCC(C)NC(=O)c1ccc2c(c1)nc1n2CCCCC1 (stereo not given) 59.1%
CN1CCN(C(=O)c2ccc3c(c2)N(Cc2ccc(F)cc2)C(=O)c2ccccc2S3=O)CC1 (stereo not given) -11%
CC(C)(C)OC(=O)N1CCC(c2c(C(=O)NCc3ccccc3)cnn2-c2ccc(F)cc2)CC1 -23.5%
O=C(CSc1nc(-c2ccccc2)no1)N1CCN(c2ccccc2)CC1 3.81%
CCOc1ccccc1NC(=O)c1cc(S(=O)(=O)N2CCOCC2)cn1C -3.26%
CCN1CCc2c(sc(-n3cccc3)c2C(C)NC(=O)Nc2cc(Cl)c(OC)cc2OC)C1 (stereo not given) -15.9%
CC(C)Oc1ccc(NC(=O)c2cc3ccccc3o2)cc1 -24.7%
Cc1sc2c(c1C)c(=O)n(Cc1ccccc1)c(=O)n2CC(=O)N(C)c1ccccc1 -4.23%
CCCNC(=O)c1cnn2c(C(F)F)cc(-c3ccccc3)nc12 -17%
CC1(C)CC(=O)c2cc(-c3nc(-c4ccc(Cl)cc4)cs3)c(=O)[nH]c2C1 -1.97%
COc1ccc(-c2nc(Cn3c(=O)cc(-c4ccccc4)c4c(C)nn(C)c43)c(C)o2)cc1OC 11.6%
CC(=O)N1CCc2cc(Br)cc(S(=O)(=O)NCCc3ccc(Cl)cc3)c21 -8.66%
CC1=C(/C=C/C(C)=C/C=C/C(C)=C/C(=O)Nc2ccc(O)cc2)C(C)(C)CCC1 -17.4%
CC(=O)c1cccc(NC(=O)CCc2nc3cccnc3n2Cc2cccs2)c1 -21.8%
O=C(c1cccn1-c1nnc(N2CCCCC2)s1)N1CCN(c2ccc(Cl)cc2)CC1 -28.4%
COc1ccc(CCNc2nc3ccc(C)cc3n3cnnc23)cc1OC -1.99%
CCOC(=O)CSc1nc(-c2ccc(F)cc2)cc(C(F)(F)F)c1C#N -32%
Cc1cc(C)cc(NC(=O)C(CC(C)C)NC(=O)C2CCCCC2)c1 (stereo not given) -0.544%
CN(C)c1ccc(C(=O)Nc2c(C(=O)NC(C)(C)C)oc3ccccc23)cc1 -16.5%
CC(C)Oc1ccc(CNC(=O)c2ccc3nc(C(C)C)oc3c2)cc1 -2.9%
COc1ccc(-c2nc3scc(CCNS(=O)(=O)c4c(C)cc(C)cc4C)n3n2)cc1OC -7.46%
CCc1nn2c(=O)cc(COC(=O)c3ccc4c(c3)OCO4)nc2s1 -2.17%
Cc1cc(C)cc(C(=O)Nc2cccc(-c3nc4ncccc4o3)c2C)c1 13.1%
COc1ccccc1CNC(=O)CCCCn1c(=O)c2ccccc2n(Cc2ccccc2C)c1=O -30%
CC(C)(C)C1CCc2c(sc(NC(=O)c3ccccc3F)c2C(=O)NCc2ccco2)C1 (stereo not given) -31.7%
CC(=O)c1c(C)n(-c2ccc(Cl)cc2)c2ccc(OC(=O)COc3ccccc3)cc12 -23.5%
NC(=O)c1ncn([C@@H]2O[C@H](CO)[C@@H](O)[C@H]2O)c1N 0.972%
CC(=O)c1cccc(NC(=O)c2ccc(Cl)c(S(=O)(=O)N3CCOCC3)c2)c1 -22.4%
CCOC(=O)c1cc2c(=O)n3ccccc3nc2n(CCOC)c1=NC(=O)c1cc2ccccc2o1 -4.03%
c1ccc(N2CCN(Cc3nnc(-c4ccc5c(c4)OCO5)o3)CC2)cc1 -18.6%
CN(Cc1ccccc1)S(=O)(=O)c1nnc(NC(=O)c2ccccc2Cl)s1 -7.72%
COc1cccc(-c2ccc3c(N)c(C(=O)c4ccc(F)cc4)sc3n2)c1 17.8%
CC(NC(=O)CCCN1C(=O)CCn2nc(-c3cn(C)c4ccccc34)cc21)c1ccccc1 (stereo not given) -9.07%
NC(=O)c1ccc(-c2nc(-c3ccc4c(c3)OCO4)c(-c3ccccn3)[nH]2)cc1 -2.21%
CCOC(=O)c1c(C)oc2nc(C)nc(NCC3CCN(Cc4ccc(F)cc4)CC3)c12 0%
COc1ccc(CNc2ncnc3c2cnn3-c2ccc(Cl)cc2)cc1 -11.8%
O=C(Nc1ccc(Cl)c(-c2nc3ccccc3o2)c1)c1cccc2c(Cl)cccc12 -15.3%
Cc1ccc(CSC2=Nc3ccccc3C3=NC(CCC(=O)NCc4cccs4)C(=O)N23)c(C)c1 (stereo not given) -5.45%
COc1ccc(Nc2ccc3cc(S(=O)(=O)N4CCCC4)ccc3n2)cc1OC 9.34%
Fc1ccc(-c2nc3c4c(-c5ccccc5)c(-c5ccccc5)oc4ncn3n2)cc1 -16.7%
Cc1cc(N2CCN(C)CC2)nc2ccc(NC(=O)Nc3ccc(F)cc3F)cc12 53.7%
Cc1ccc(NS(=O)(=O)c2c(C)nc3sccn3c2=O)c(Cl)c1 -14.5%
Cc1ccc(-n2c(=O)c3c(c4cc(C)ccc4n3C)n(CC(=O)NCC3CCCO3)c2=O)cc1 (stereo not given) 9.94%
CCC(=O)O[C@H]1[C@H](O[C@@H]2[C@@H](C)[C@H](O[C@H]3C[C@@](C)(OC)[C@@H](O)[C@H](C)O3)[C@@H](C)C(=O)O[C@H](CC)[C@@](C)(O)[C@H](O)[C@@H](C)C(=O)[C@H](C)C[C@@]2(C)O)O[C@H](C)C[C@@H]1N(C)C -0.111%
COc1cc(Cl)c(NC(=O)CC(C)S(=O)(=O)c2cc3c(cc2C)NC(=O)CO3)c(OC)c1 (stereo not given) 0.115%
Cc1ccc(NC(=O)CSc2nncn3c2cc2sccc23)cc1F 5.95%
CCCCOC(=O)c1ccc(NC2=NS(=O)(=O)c3ccccc32)cc1 -10%
Cc1cccc(NC(=O)CCn2nc(C)c3c(C)n(-c4ccccc4)nc3c2=O)c1C -19.9%
Cc1ccc(-c2nc3n(n2)C(=O)CC(c2ccc(C)cc2)S3)cc1 (stereo not given) -0.25%
COc1ccc(S(=O)(=O)NCc2ccc3c(c2)CCN3C(C)=O)cc1OC -18.3%
Nc1ncnc2c1ncn2[C@@H]1O[C@H](COP(=O)(O)O)[C@@H](O)[C@H]1O 17%
Cc1ccc(NC(=O)CCS(=O)(=O)c2ccc3nc(C)sc3c2)c(C)c1 -3.78%
COc1ccccc1N1CCN(c2c(CN3CCCC3)c(=O)oc3ccccc23)CC1 -5.18%
O=C(Nc1ccc(Cl)c(Cl)c1)N(Cc1c[nH]c2ccccc12)C1CCCCC1 47.4%
CCOc1ccc(C(=O)Nc2ccc(NC(=O)c3ccccc3)cc2)cc1Br -1.85%
COC(=O)c1ccc([C@H]2Nc3ccc(S(=O)(=O)Nc4ccc(F)cc4)cc3[C@H]3C=CC[C@H]32)cc1 -19.1%
Cc1ccc(OCC(=O)N(Cc2nc(-c3ccccc3)no2)C(C)C)cc1C -27.1%
CN(C)c1ncc(C(=O)NCc2ccccc2Cl)cn1 -3.67%
CCOC(=O)CNC(=O)Nc1cc(C(=O)NCc2ccc(C(C)C)cc2)ccc1N1CCCC1 -31.6%
C[N+]12CCC(CC1)C(OC(=O)C(O)(c1ccccc1)c1ccccc1)C2 (stereo not given) -4.79%
Cc1cc(OCC(=O)Nc2sc3c(c2C#N)CCC(C)C3)ccc1Cl (stereo not given) -3.94%
Cc1ccc2[nH]c(=O)c3cc(C(=O)NCc4cccc(Cl)c4)sc3c2c1 -6.19%
COc1ccccc1-c1noc(CSc2nnc(-c3ccccc3)n2-c2ccc(C)c(C)c2)n1 -6%
CC(=O)c1ccc(NC(=O)CSc2nc(-c3ccccc3C)nc3c2c(=O)n(C)c(=O)n3C)cc1 -4.49%
O=C(CSc1ncc(-c2ccc(Cl)cc2)[nH]1)Nc1ccccc1F -22.1%
CCOc1ccc(C(=O)c2cn(Cc3cccc(OC)c3)c3cc4c(cc3c2=O)OCO4)cc1 -28.6%
C[N+]1(C)CCC(=C(c2ccccc2)c2ccccc2)CC1 8.31%
Cc1ccc2[nH]c(=O)c3cc(C(=O)NC4CCC(C)CC4)sc3c2c1 (stereo not given) 1.27%
CCCCN(C)C(=O)CSc1nc2ccccc2nc1Cc1ccc(C)cc1 -6.91%
COc1ccc(-n2c(=O)c3c4c(sc3n(C)c2=O)CN(C(C)=O)CC4)cc1 -13.4%
O=c1cc(-c2ccccc2)n2c(SCc3ccccc3Cl)nnc2[nH]1 -8.09%
COc1ccccc1C(=O)Nc1nnc2n1CCS2 54%
COc1cccc2c1cc1c(=O)n(CC(=O)NCc3ccco3)nc(C)n12 -15.1%
Cc1c(Cl)cccc1NC(=O)CSc1nc(=O)n(Cc2ccco2)c2c1CCC2 -37.6%
CCCCCNC(=O)C1CCC(Cn2c(=O)c3sccc3n(CC(=O)NCc3cccc(OC)c3OC)c2=O)CC1 (stereo not given) -15.5%
CCCCC(=O)Nc1nnc(S(=O)(=O)N(C)Cc2ccccc2)s1 -13.4%
CCSc1nnc2c(n1)OC(c1ccc(OC)c(OC)c1)N(C(C)=O)c1ccccc1-2 (stereo not given) -16.4%
Cc1cccc(N(C)S(=O)(=O)c2cc3[nH]c(=O)c(=O)[nH]c3cc2C)c1 0.117%
NS(=O)(=O)c1cc2c(cc1Cl)NCNS2(=O)=O
COc1ccc(Cl)cc1NC(=O)CSc1ccc2nnc(CCNS(=O)(=O)c3ccccc3)n2n1 -13%
CCOc1ccc(S(=O)(=O)Nc2ccc3oc4c(c3c2)CC(C)CC4)cc1 (stereo not given) -17.6%
COc1ccccc1CNC(=O)COCc1cc(-c2ccc3c(c2)OCO3)on1 -19.9%
COc1ccc(/C=C(\C#N)c2nc3ccccc3c(=O)[nH]2)cc1OC -21%
O=C(COc1ccc(F)cc1)OCc1cc(=O)n2nc(-c3cccs3)sc2n1 -18.3%
COc1cccc(CNS(=O)(=O)c2c(C(=O)N3CCC(C)CC3)c(C)n(C)c2C)c1 -20%
COc1cc(NS(=O)(=O)c2c(C)nc3sc(C)c(C)n3c2=O)cc(OC)c1 -14.1%
CCOc1ccccc1CNC(=O)Cn1nc(N2CCN(c3ccccc3)CC2)ccc1=O 3.13%
COc1ccc(C)c2sc(NC(=O)c3ccc(S(=O)(=O)N4CCCC4)cc3)nc12 -2.07%
NC(N)=N/N=C/c1c(Cl)cccc1Cl -2.87%
Cn1nnnc1SCCCNCc1cccc(OCc2ccccc2)c1 -14.6%
O=C(NCc1ccc(Cl)cc1)NC1COc2ccccc2C1 (stereo not given) -1.4%
CC1CCN(S(=O)(=O)c2ccc3c(c2)N(CC(=O)NCC(C)c2ccccc2)C(=O)CO3)CC1 (stereo not given) -15.7%
Cc1c(C(=O)OCc2ccccc2)[nH]c2c1C(=O)CC(c1ccc(Cl)cc1)C2 (stereo not given) -18.7%
